From PubChem BioAssay AID1479 (National Center for Advancing Translational Sciences (NCATS), 2009)
In all, about 280,000 compounds went through this assay and about 820 (0.29%) were called active. The shares of active, inactive and inconclusive entries below differ from those in the screen. Calls come from the whole dose curve; as a rule, active = well fitted curve in either direction with a large enough effect; inconclusive = small, poorly fitted or top-dose-only effect; inactive = flat fitted curve, though single readings scatter. No potency is given beside an inconclusive call; the fits are too rough.

assay: Total Fluorescence Counterscreen for Inhibitors of the Interaction of Thyroid Hormone Receptor and Steroid Receptor Coregulator 2; settings: TRb/SRC2 Texas Red total fluorescence interference; series mostly up to 106 µM
Outline: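 Human TRβ ligand-binding domain (0.6 uM) and Texas Red SRC2 peptide (20 nM) in Tris buffer with 1 uM T3 and 5% DMSO were incubated with pinned compound for 5 hr at ambient temperature. Total fluorescence was computed as S + 2P (555/632 nm).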
% is set by controls: 0 for no effect and ±100 for the full control effect; potency is the fitted concentration of half-maximal effect; tags give direction and shape of the fitted curve or compound fluorescence and quenching.

SMILES | Potency | fluorescence change, negative = quenching
CCN(C(=O)C1CCN(S(=O)(=O)c2ccc3c(c2)CCCN3C(=O)C2CCC2)CC1)c1cccc(C)c1 | inconclusive [falling, full curve, poor fit] | 
COc1ccc(OC)c(-c2cc(C(=O)Nc3cc(C)n(Cc4ccc(Cl)cc4)n3)no2)c1 | inactive | 
CCOc1cc(/C=C/c2ccc3cccc([N+](=O)[O-])c3n2)cc(Cl)c1O | inconclusive [falling, partial curve, poor fit] | 
Cc1ccc2oc(C(=O)N(Cc3ccccc3F)C3CCS(=O)(=O)C3)c(C)c2c1 (stereo not given) | inconclusive [falling, full curve, poor fit] | 
CCCCOc1ccc(-c2cc3c(=O)n(CC(=O)Nc4ccc(Cl)cc4Cl)ccn3n2)cc1 | inconclusive [falling, full curve, poor fit] | 
COc1ccc(-c2cc(=O)c3cc(OC)ccc3o2)cc1 | inconclusive [falling, full curve, poor fit] | 
CCc1ccc(OC(C)C(=O)Nc2c(C(=O)c3ccccc3)oc3ccccc23)cc1 (stereo not given) | inconclusive [falling, partial curve, poor fit] | 
Cc1[nH]c2ccccc2c1/C=N/Nc1nncn1N | inactive | 
Cc1nn(CC(=O)NC2CC2)c(=O)c2cc3ccccc3n12 | inconclusive [quencher, full curve] | 
COC(=O)c1ccc(-n2c(C)nc(=O)c(-c3ccccc3)c2C)cc1 | inactive | 
CN(C)/C=C/C(=O)c1ccc(Br)s1 | inactive | 
CC(C)CCOc1ccc(C(=O)Nc2sc3c(c2C#N)CCCCC3)cc1 | inconclusive [falling, full curve, poor fit] | 
CCOc1ccc(CNC(=O)c2cc3oc4ccccc4c3n2C)cc1 | inconclusive [falling, full curve, poor fit] | 
Cc1cc(C)c2c(CC(=O)N(Cc3ccc(N(C)C)cc3)Cc3ccco3)coc2c1 | inconclusive [falling, full curve, poor fit] | 
COc1ccc(Cl)cc1NC(=O)Cn1ccn(Cc2ccc(C)cc2)c(=O)c1=O | inconclusive [falling, partial curve, poor fit] | 
CCOC(=O)N1CCN(C(=O)CN(c2cccc(Cl)c2C)S(=O)(=O)c2ccc(C)cc2)CC1 | inactive | 
COC(=O)c1ccc(Nc2ncnc3c2nc2n3CCCC2)cc1 | active: 17.8 µM [quencher] | 
Cc1ccc2[nH]c(-c3ccc(F)cc3F)cc(=O)c2c1 | inconclusive [falling, full curve, poor fit] | 
CCC(C)OC1OC(CO)C(O)C(O)C1NC(C)=O (stereo not given) | inconclusive [falling, full curve, poor fit] | 
CC(C)(C)n1nnnc1C(c1ccc(C(F)(F)F)cc1)N(Cc1ccc(F)cc1)Cc1ccco1 (stereo not given) | inactive | 

SMILES | Potency | fluorescence change, negative = quenching
Cc1ccc(NC(=O)c2cc(S(=O)(=O)N3CCCC(C)C3)cn2C)c(Br)c1 (stereo not given) | inconclusive [falling, partial curve, poor fit] | 
COc1ccc(Cn2c(=O)c3cccnc3n(Cc3cccc(OC)c3)c2=O)cc1 | inconclusive [falling, full curve, poor fit] | 
CC(C)C[C@H](NC(=O)[C@H](CCCCN)NC(=O)CNC(=O)[C@H](CC(C)C)NC(=O)[C@@H](NC(=O)[C@@H]1CSSC[C@H](N)C(=O)N[C@@H](CO)C(=O)N[C@@H](CC(N)=O)C(=O)N[C@@H](CC(C)C)C(=O)N[C@@H](CO)C(=O)N[C@@H]([C@@H](C)O)C(=O)N1)C(C)C)C(=O)N[C@@H](CO)C(=O)N[C@@H](CCC(N)=O)C(=O)N[C@@H](CCC(=O)O)C(=O)N[C@@H](CC(C)C)C(=O)N[C@@H](Cc1cnc[nH]1)C(=O)N[C@@H](CCCCN)C(=O)N[C@@H](CC(C)C)C(=O)N[C@@H](CCC(N)=O)C(=O)N[C@H](C(=O)N[C@@H](Cc1ccc(O)cc1)C(=O)N1CCC[C@H]1C(=O)N[C@@H](CCCNC(=N)N)C(=O)N[C@H](C(=O)N[C@@H](CC(N)=O)C(=O)N[C@H](C(=O)NCC(=O)N[C@@H](CO)C(=O)NCC(=O)N[C@H](C(=O)N1CCC[C@H]1C(N)=O)[C@@H](C)O)[C@@H](C)O)[C@@H](C)O)[C@@H](C)O | inactive | 
Cc1ccc(N(CC(O)CN2CCOCC2)S(=O)(=O)c2ccc3ccccc3c2)cc1 (stereo not given) | inactive | 
O=C(NC1CCCCCC1)C1CCN(C(=O)N2CCOc3ccccc32)CC1 | inactive | 
Nc1c(C(=O)c2ccc(Cl)cc2)sc2nsc(SCCN3CCOCC3)c12 | inactive | 
COc1ccccc1NC(=O)c1ccc(SCC(=O)NCc2ccccc2Cl)c([N+](=O)[O-])c1 | inconclusive [falling, full curve, poor fit] | 
CCOC(=O)c1noc2ncnc(Nc3ccc(F)cc3F)c12 | inconclusive [quencher, partial curve] | 
Cn1cc(S(=O)(=O)N2CCCCCC2)cc1C(=O)N1CCN(c2cccc(Cl)c2)CC1 | inconclusive [falling, full curve, poor fit] | 
CCOc1cc(NC(=S)NCCCOC)c(OCC)cc1NC(=O)c1ccco1 | active: 7940 µM [quencher] | 
CC(C)Cn1c(N)c(C(=O)COC(=O)c2cc(-c3ccco3)nc3ccccc23)c(=O)n(C)c1=O | inconclusive [quencher, partial curve] | 
Cc1ccccc1C(=O)Nc1nnc(S(=O)(=O)N2c3ccccc3CC2C)s1 (stereo not given) | inconclusive [falling, full curve, poor fit] | 
CCOc1ccc(N(CC(=O)NCc2ccccc2Cl)S(=O)(=O)c2c(C)[nH]c(=O)[nH]c2=O)cc1 | inconclusive [falling, partial curve, poor fit] | 
Cc1cc(C)n(-c2cc(N3CCN(S(=O)(=O)c4ccc(Cl)cc4)CC3)ccc2[N+](=O)[O-])n1 | inconclusive [quencher, partial curve] | 
O=C1c2ccccc2NC(c2cccc(F)c2)N1Cc1ccco1 (stereo not given) | inactive | 
Cc1cc(C)c(NC(=O)CSc2nc3nc(C)cc(C)n3n2)c(C)c1 | active: 20 µM [quencher] | 
COc1ccc2c(c1)O[C@@H](c1ccc3c(c1)OCO3)[C@H](OC(=O)NS(=O)(=O)c1ccc(C)cc1)C2=O | inactive | 
O=C(O)c1cc(N=Nc2ccc(-c3ccc(N=Nc4ccc(O)c(C(=O)O)c4)cc3)cc2)ccc1O | active: 28.2 µM [quencher] | 
CCc1ccccc1N1C(=O)N(Cc2ccc(C#N)cc2)c2ccccc2S1(=O)=O | inconclusive [falling, full curve, poor fit] | 
N#Cc1c(N2CCCCC2)nc(N)c2c(N)nc3c(c12)CC(c1ccccc1)O3 (stereo not given) | inactive | 

SMILES | Potency | fluorescence change, negative = quenching
CCCCNc1nc(Oc2ccc(OCC)nn2)nc(N2CCOCC2)n1 | inactive | 
CCn1c(C(=O)NCCc2ccc(OC)c(OC)c2)cc2sc(Cl)cc21 | inconclusive [falling, full curve, poor fit] | 
O=C(c1ccccc1)N1CCN(c2ccc(NCc3ccc4c(c3)OCO4)cc2)CC1 | inactive | 
COc1ccc(OC)c(NC(=O)c2noc3c2CCCC3)c1 | inactive | 
O=C1N(Cc2cccc(Cl)c2)C[C@@H]2C[C@@H](c3c[nH]c4ccccc34)N3CCC[C@@]123 | inconclusive [fluorescent, partial curve] | 
CC(C)C(=O)Nc1ccc2c(c1)nc(CCN1CCN(c3ccccc3)CC1)n2C | inactive | 
CCOC(=O)CC(NS(=O)(=O)c1ccc2[nH]c3c(c2c1)CCCC3)c1ccccc1Cl (stereo not given) | inconclusive [falling, partial curve, poor fit] | 
O=C(N/N=C1/C[C@@H](O)[C@@H](O)[C@@H]2[C@@H]3C(=O)N(Cc4ccccc4)C(=O)[C@H]3CC[C@H]12)OCc1ccccc1 |  | inactive: 1.19% [at 11.2 µM]
CN(C)c1ccc(C(CNS(=O)(=O)c2ccccc2)N2CCc3ccccc32)cc1 (stereo not given) | inactive | 
Cc1ccc(OCC(=O)N/N=C\c2ccc(O)c([N+](=O)[O-])c2)c([N+](=O)[O-])c1 | inactive | 
Cc1ccccc1Cn1c(=O)n(Cc2ccc(Cl)cc2)c(=O)c2cccnc21 | inconclusive [quencher, full curve] | 
COc1cccc2cc(-c3ccnc(=S)[nH]3)oc12 | inactive | 
COc1ccc2c(c1)-c1nc(/N=C/c3c(O)ccc4ccccc34)sc1CC2 | inconclusive [quencher, partial curve] | 
Cc1coc2cc3oc(=O)c(CCC(=O)NCc4ccc(Cl)cc4)c(C)c3cc12 | inconclusive [falling, full curve, poor fit] | 
Cc1ccc(NC(=O)CN2C(=O)S/C(=C/c3ccc(O)c([N+](=O)[O-])c3)C2=O)cc1C | inconclusive [falling, single point] | 
CCn1cc(S(=O)(=O)c2cc(C)cc(C)c2)c(=O)c2cc(F)c(N3CCCC3)cc21 | inconclusive [quencher, partial curve] | 
COc1ccc(C(=O)CN2CCN(S(=O)(=O)c3cccc([N+](=O)[O-])c3)CC2)cc1OC | inconclusive [falling, partial curve, poor fit] | 
COc1cccc(CNC(=O)CCc2cn(Cc3ccccc3Cl)c3ccccc23)c1 | inactive | 
C=CCCC(=O)Nc1nc(C)c(-c2csc(Nc3ccccc3OC)n2)s1 | inactive | 
Cc1cc(C)cc(OCC(=O)NCCc2nc3ccccc3[nH]2)c1 | inconclusive [falling, partial curve, poor fit] | 
